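Tested at 5 concentrations; 48 h exposure; 96-well plates; endpoints linearly interpolated, else capped at highest concentration. Abbreviation: GI50, concentration required for 50% inhibition of growth.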 Activity calls are given as the source filed them. Rule as the data show it: active = GI50 up to about 1.1 µM and inactive = higher.
What follows are compounds tested on NCI-H322M (assay: inhibition of tumour cell growth, NCI panel, 48 h).

Row | SMILES | GI50
1 | Cc1ccc(C(=O)O)c(/C=C2\Cc3cc(C)cc(C)c3C2=O)c1 | inactive: > 100 µM
2 | COC(=O)CNC(=O)Nc1cc(N2C(=O)ON3C2C(C)(C)N(O)C3(C)C)ccc1C (centres undefined) | inactive: > 100 µM
3 | CCOc1ccc(NC(=O)CC2SC(Nc3ccc(C)cc3C)=NC2=O)cc1 (centres undefined) | inactive: 58.9 µM
4 | O=C(O)C1C2CCC(C2)C1c1ccccc1 (centres undefined) | inactive: > 100 µM
5 | CC(C)(C)N/N=C(\C(=O)NC1=C(Cl)C(=O)c2ccccc2C1=O)C1C=CCS1(=O)=O (centres undefined) | inactive: 15.4 µM
6 | Oc1nncc2[nH]c(-c3ccccc3)cc12 | inactive: > 100 µM
7 | NCCCNCCSP(=O)(O)O [AMIFOSTINE] | inactive: > 750 µM
8 | COC1=C(Br)[C@H](O)[C@@]2(C=C1Br)CC(C(=O)NCCCCCNC(=N)N)=NO2 [APLYSINAMISINE II] | inactive: > 10 µM
9 | [N-]=[N+]=CC(=O)CCC(N)C(=O)O (centres undefined) | inactive: 1.6 µM
10 | O=C1c2ccccc2C(=O)N1CCSCC(CO)SCCN1C(=O)c2ccccc2C1=O (centres undefined) | inactive: > 100 µM
11 | Nc1ccc(Oc2ccc(C3(c4ccc(Oc5ccc(N)cc5)cc4)C4CC5C6CC7CC5C3C(C7)C6C4)cc2)cc1 | inactive: 1.22 µM
12 | Cc1nc(-c2cc3ccccc3oc2=O)cs1 | inactive: > 100 µM
13 | CCC(c1c[nH]c2ccc(Br)cc12)c1c[nH]c2ccc(Br)cc12 | inactive: 5.36 µM
14 | CN1N=C2c3ccccc3CC[C@H]2C1c1cccc(O)c1 (some centres undefined) | inactive: > 100 µM
15 | CN1C/C(=C\c2cccs2)C(=O)/C(=C/c2cccs2)C1 | inactive: 21 µM
16 | CN(C)CCNC(=O)c1cccc(C(=O)Nc2ccccc2)c1[N+](=O)[O-] | inactive: > 100 µM
17 | Nn1c(CNc2ccc(-c3nnc(Nc4ccc(Cl)cc4)n3N)cc2)nnc1Nc1ccc(Cl)cc1 | inactive: > 100 µM
18 | O=C1[C@H]2ON(c3ccccc3)C(c3ccc([N+](=O)[O-])cc3)[C@H]2C(=O)N1c1ccc(Cc2ccc(N3C(=O)[C@@H]4ON(c5ccccc5)C(c5ccc([N+](=O)[O-])cc5)[C@@H]4C3=O)cc2)cc1 (some centres undefined) | inactive: > 100 µM
19 | O=C1c2c(nc3ccccc3c2-c2ccccc2)CN1Nc1ccccn1 | inactive: > 100 µM
20 | COC(=O)CC[C@]12C[C@]13CC[C@]1(C)C4C(C)C[C@]5(CC(C)C(=O)O5)OC4CC1(C)C3CCC2C(C)(C)O (some centres undefined) | inactive: > 100 µM
21 | O=C(O)c1ccccc1CC(Cc1ccc2c(c1)CCC2)C(=O)O (centres undefined) | inactive: > 100 µM
22 | Cc1cc(S(=O)(=O)n2ccnc2Oc2cccc(Cl)c2)c(SSc2cc(Cl)c(C)cc2S(=O)(=O)n2ccnc2Oc2cccc(Cl)c2)cc1Cl | inactive: 16.4 µM

Row | SMILES | GI50
23 | CC(c1ccccc1)n1cncc1C(=O)NN1CCN(C)CC1 (centres undefined) | inactive: > 10 µM
24 | O=C(c1ccc(Cl)cc1Cl)N(C(=O)N1CCCCC1)c1ccccc1 | inactive: > 100 µM
25 | COc1ccc(C(=O)C(CC2C(=O)NC(=O)NC2=O)c2ccc(OC)cc2)cc1 (centres undefined) | inactive: > 100 µM
26 | Cn1cc(C[C@@H](N)C(=O)O)c2ccccc21 [INDOXIMOD] | inactive: > 100 µM
27 | COc1ccc(S(=O)(=O)N/N=C/CN2C(=O)c3ccccc3C2=O)cc1OC | inactive: > 100 µM
28 | O=C(Nc1ccccc1)c1nn(-c2cc(S(=O)(=O)O)c([N+](=O)[O-])cc2Cl)[n+](-c2cc(S(=O)(=O)[O-])c([N+](=O)[O-])cc2Cl)n1 | inactive: > 100 µM
29 | O=C(Nc1c(O)[nH]c(=S)[nH]c1=O)c1ccco1 | inactive: > 100 µM
30 | N[C@H]1CCCC[C@@H]1N1C(=O)c2ccccc2C1(O)c1ccc(Cl)cc1 (some centres undefined) | inactive: 14 µM
31 | Cc1ccc(N2C(=O)C3CSCN3C2=O)cc1 (centres undefined) | inactive: > 100 µM
32 | COc1cc2oc(-c3ccc4c(c3)OCO4)c(OC)c(=O)c2c(OC)c1O | inactive: > 100 µM
33 | CC(=O)/C(=C/NC(=S)c1cccnc1)C(=O)Nc1ccccc1C | inactive: > 100 µM
34 | CN(C)CCNC(=O)c1cccc2nc3c4ccccc4c4ccccc4c3nc12 | inactive: 1.65 µM
35 | COCOCc1cc(OCc2ccccc2)c(OC)cc1Br | inactive: > 100 µM
36 | COCn1cnc2c(=O)n(-c3ccc(OC)cc3)c(=S)n(-c3ccc(OC)cc3)c21 | inactive: > 100 µM
37 | COC(=O)NC12CC3CC(CC(F)(C3)C1)C2 | inactive: > 100 µM
38 | CC(C)(Oc1ccc(/C=C/C(=O)c2ccc(Cl)cc2)cc1)C(=O)Nc1c(Cl)cccc1Cl | inactive: 74.1 µM
39 | CCN(CC)Cc1cc(Nc2c3ccccc3nc3c2[nH]c2ccccc23)cc(CN(CC)CC)c1O | active: 0.8 µM
40 | O=c1[nH]nc(Cc2ccc(Cl)cc2)n1CCO | inactive: > 100 µM
41 | CC(=O)OCC1OC(n2c(C)c(/N=N/c3ccccc3)c(C)c(C#N)c2=S)C(OC(C)=O)C(OC(C)=O)C1OC(C)=O (centres undefined) | inactive: 69 µM
42 | COc1ccc(-c2cc3ccccc3[nH]c2=O)cc1OC | inactive: > 100 µM
43 | Cc1cc(Oc2cnc(=O)[nH]c2)cs1 | inactive: > 100 µM
44 | CC(=O)Nc1ccc(-c2nnc(SCC(=O)Nc3ccc(Cl)cc3)o2)cc1 | inactive: 16 µM

Row | SMILES | GI50
45 | CCOC(=O)c1cnc(-n2[nH]c3c(c2=O)CCCC3)[nH]c1=O | inactive: 60 µM
46 | CC1=NC(=N)N=C(C)C1/N=N/c1ccc2[nH]c(C)nc2c1 (centres undefined) | inactive: > 100 µM
47 | O=S(=O)(O)SCCNCCCCCC1CCCCC1 | inactive: 8.85 µM
48 | C=C(C)C1CCC2(CO)C(O)CC3(C)C(CCC4C5(C)CCC(O)C(C)(C)C5CCC43C)C12 (centres undefined) | inactive: 10.9 µM
49 | FC(F)(F)c1ccc2c(c1)nc(Cc1ccccc1)n2C[C@@H]1CCCN2CCCCC12 (some centres undefined) | inactive: 15.1 µM
50 | CN(C)Cc1cc(/N=N/c2c(Cl)cccc2Cl)ccc1O | inactive: > 100 µM
51 | CCOC(=O)C1=NN(c2ccc(C)cc2)C2=CC(C)=NN(C)C(=S)N21 | inactive: > 100 µM
52 | CCN1CCC(O)(c2ccc(OC)cc2)C(C(=O)c2ccc(OC)cc2)C1 (centres undefined) | inactive: 39.7 µM
53 | C=C1C(=O)C=C[C@]2(C)CC[C@H]3C(=C)C(=O)O[C@@H]3[C@@H]12 | inactive: 17.1 µM
54 | COC(=O)Cn1c(=O)oc2nc(-c3ccccc3)cc(C(F)(F)F)c21 | inactive: > 100 µM
55 | CC1=CC(=O)N(n2c(Cc3ccc(Cl)cc3)n[nH]c2=O)C1=O | inactive: > 100 µM
56 | Nc1nc(-c2ccccc2)nc2oc(-c3cccs3)nc12 | inactive: > 100 µM
57 | c1c2c(cc(-n3nnc4c3CCCCCC4)c1-n1nnc3c1CCCCCC3)CCCCCC2 | inactive: 12.6 µM
58 | NC(=S)N/N=c1\cc(C(=O)Nc2ccc([N+](=O)[O-])cc2[N+](=O)[O-])oc2ccccc12 | inactive: > 100 µM
59 | Cc1c2c(c(C)c3c4c(oc13)CCCC4)C=NCC2 | inactive: 13.6 µM
60 | CCOC(=O)CCC(C(=O)OCC)n1nnc2ccc(Nc3c(C)[n+]([O-])c4cc(F)c(OCC)cc4[n+]3[O-])cc21 (centres undefined) | inactive: 45.6 µM
61 | C[O+]=C1C=CC(=C2SC(c3ccccc3)(c3ccccc3)c3ccccc32)C=C1.[O-][Cl+3]([O-])([O-])[O-] | inactive: 25.6 µM
62 | C/C(=C\CO)CC[C@@H]1[C@@]2(C)CCCC(C)(C)[C@@H]2CC[C@@]1(C)O | inactive: 82.4 µM
63 | COc1nc(NC2OC(COC(C)=O)C(OC(C)=O)C(OC(C)=O)C2OC(C)=O)c2c(OC(C)=O)cc(=O)oc2n1 (centres undefined) | inactive: > 100 µM
64 | CCN(CC)CCCC(C)Nc1c2ccc(Cl)cc2nc2cc(Cl)ccc12 (centres undefined) | inactive: 4.5 µM

From ChEMBL document CHEMBL1201862, “PubChem BioAssay data set” (2004)
